Reference: US12138303B2, “Staphylococcus pseudintermedius virulence factor compositions” (UNIVERSITY OF TENNESSEE RESEARCH FOUNDATION, priority 2017, dated 2024)

Assays:
dog IgG = experiment: ELISA reactivity with dog serum / dog IgG; type: binding; details: serum 1:2000; compared to recombinant wild-type SpsQ and SpA
Description: To test the reactivity of serum from a dog with chronic pyoderma, S. aureus SpA and S. pseudintermedius SpsQ and SpsQ-M were coated on ELISA plates (Corning, USA Cat No. 3590) at 2 μg/ml in PBS. They were incubated with serum at a dilution of 1:2000. Bound IgG, IgM, and IgA were detected by HRP-goat anti-dog IgG-heavy and light chain (Bethyl Laboratories, Inc., USA Cat No. A40-123-1), HRP-goat anti-dog IgM μ chain (Bethyl Laboratories, Inc., USA Cat No. A40-116-2), HRP-goat anti-dog IgA (Bethyl Laboratories, Inc., USA Cat No. A40-104P) at a dilution of 1:8000 in PBS-T. Dog whole IgG molecule (Rockland, USA Cat No. 004-0102-1000) was used for comparison to measure non-specific IgG binding.

clinically normal dogs = experiment: Antibody response of dogs injected with SpsQ-M (ELISA of sera); type: in vivo, dog; details: 100 μg subcutaneous, three weekly injections; sera days −7, 8, 15, 29; versus pre-injection sera
Description: Recombinant SpsQ-M (SEQ ID NO:2) at 100 μg/0.5 cc in phosphate buffered saline (PBS) (pH 7.2) was injected in the lateral thorax by the subcutaneous route, into three clinically normal dogs. Injections were given once every 7 days for a total of three injections with a control dog receiving PBS (pH 7.2) only. Blood (6 cc) was collected from a jugular vein using a 20 g needle and 12 cc syringe 4 times, on days −7, 8, 15 and 29. The collected blood was left undisturbed at room temperature for 30 min followed by centrifugation at 2,000×g for 10 min in a refrigerated centrifuge.
To detect a specific antibody response against SpsQ-M in injected dogs, recombinant S. pseudintermedius proteins and commercial SpA were coated on ELISA plates as previously described and incubated with two-fold serially diluted serum from injected dogs (1/1000-1/32000). Bound IgG was detected using HRP-goat anti-dog IgG-heavy and light chain (Bethyl Laboratories, Inc., USA Cat No. A40-123-1) with serum from uninjected dogs used as negative controls. The experiment was run in duplicate and a p-value of <0.05 was considered significant.

Question: How did the “reactivity of sera from a dog with a history of chronic pyoderma” value (dog IgG) turn out when “SpsQ-M: attenuated non-toxigenic S. pseudintermedius protein A with Q5K, Q6K, D32A, D33A in each Ig binding domain” was run?
Answer: Its value is “significantly lower reactivity”.

Question: What about the “antibodies against S. pseudintermedius SpsQ-M and SpsQ in sera of injected dogs” value (clinically normal dogs) of the same substance?
Answer: The value was “detected on day 15 and reached the highest level on day 29”.
